PubChem BioAssay (Tox21)
Values joined by “and” are separate entries in the source; they are usually repeats but may differ in a detail not shown here. Identical values can stand only once. Inconclusive results, whose numbers are uncertain, are shown with a selection of clear calls. A potency beside an inconclusive call is a rough fit, not a confirmed value. Active and inactive are the calls of the source. The call rests on the fitted dose curve; in most records, active means well fitted inhibition curve with a large enough effect in the repeat runs; inconclusive means weak or mixed curves; inactive means no such curve, though single readings can be large or run the other way.

Each compound was assayed against Cytochrome P450 3A4 (Homo sapiens) (UniProt P08684) (assay: Cytochrome P450 Family 3 Subfamily A Member 4 (CYP3A4) small molecule antagonists: luciferase reporter qHTS assay (AID 1671201; further: nearly all actives have a fitted effect of over 50% in size)). Conditions: P450-Glo CYP3A4 enzyme, luciferin luminescence, 1 h; series mostly up to 115 µM.
Procedure, shortened: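 Inhibition of CYP3A4 is measured as loss of light: the enzyme converts a proluciferin substrate to luciferin, detected luminescently. Reaction ran 1 h at room temperature with NADPH regeneration after a 10 min compound preincubation.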
Potency means the concentration at half of the fitted maximal effect; tags describe the fitted curve by direction and shape.

Chain of UniProt P08684 (P08684 whole entry, looked up): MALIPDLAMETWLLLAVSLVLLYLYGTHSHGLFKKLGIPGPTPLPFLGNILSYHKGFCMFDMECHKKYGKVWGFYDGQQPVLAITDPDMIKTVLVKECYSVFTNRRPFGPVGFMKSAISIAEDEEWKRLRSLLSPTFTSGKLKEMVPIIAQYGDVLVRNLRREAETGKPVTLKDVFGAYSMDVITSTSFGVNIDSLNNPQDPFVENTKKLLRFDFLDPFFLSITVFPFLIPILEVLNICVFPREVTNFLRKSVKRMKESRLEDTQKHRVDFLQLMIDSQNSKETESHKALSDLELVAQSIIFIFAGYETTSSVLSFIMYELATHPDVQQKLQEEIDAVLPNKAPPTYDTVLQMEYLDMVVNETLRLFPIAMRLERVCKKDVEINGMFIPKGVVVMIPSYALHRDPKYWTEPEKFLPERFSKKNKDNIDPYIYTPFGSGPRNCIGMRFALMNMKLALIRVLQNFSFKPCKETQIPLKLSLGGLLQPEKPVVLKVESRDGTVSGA

`Clc1ccc(C(Cl)(Cl)Cl)cc1Cl` was tested. Which Potency did it give?
Its Potency is inconclusive: 69.5 µM [inhibitor, partial curve].

How did the Potency turn out when `O=[N+]([O-])c1cc(C(F)(F)F)c(Cl)c([N+](=O)[O-])c1Cl` was run?
The Potency was active: 56.4 µM.

`O=S1(=O)OC(c2cc(Br)c(O)c(Br)c2)(c2cc(Br)c(O)c(Br)c2)c2ccccc21` was tested. Which Potency did it give?
The Potency was inconclusive: 36.6 µM [inhibitor, partial curve].

Which Potency does the source give for `C(=NC1CCCCC1)=NC1CCCCC1` here?
The Potency was “inactive”.

`Sc1ccccc1` was tested. Which Potency did it give?
Its Potency is inconclusive: 40.5 µM [inhibitor, partial curve].

`CCCCCCCCCCn1cc[n+](C)c1` was tested. Which Potency did it give?
Its Potency is inconclusive: 40.3 µM [inhibitor, partial curve] and inconclusive: 23.1 µM [inhibitor, full curve].
